# Measurements reported in the supplement of paper PMC3334620.
# Whole data set: some 33,000 sequences, median “E-score (-0.5 to 0.5)” near -0.013, cut for the highest 2% near 0.3. The list shows a part of the results.
# Target: T1, Msn1 (UniProt P22148)
# T1 sequence: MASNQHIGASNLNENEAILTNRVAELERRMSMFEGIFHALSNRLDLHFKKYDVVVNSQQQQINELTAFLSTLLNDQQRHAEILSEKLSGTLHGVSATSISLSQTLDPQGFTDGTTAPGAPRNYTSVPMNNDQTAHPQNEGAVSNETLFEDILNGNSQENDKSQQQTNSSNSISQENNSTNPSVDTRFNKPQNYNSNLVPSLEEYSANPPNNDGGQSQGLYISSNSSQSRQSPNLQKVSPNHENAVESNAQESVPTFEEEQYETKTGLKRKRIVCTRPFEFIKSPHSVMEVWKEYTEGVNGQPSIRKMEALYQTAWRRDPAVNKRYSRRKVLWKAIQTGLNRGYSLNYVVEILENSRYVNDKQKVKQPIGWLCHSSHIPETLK
# Experiment: PBM E-score (8-mer binding enrichment) (E-score (-0.5 to 0.5)); higher = stronger / more preferred TF binding; most listed sequences are background and not binding sites
# Conditions: protein concentration: 200 nM; construct: GST-full length
# In short: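 Yeast transcription factors, full-length or as DNA-binding domains, were expressed with a GST tag using PURExpress in vitro transcription/translation. At about 100-200 nM they were applied to universal all-10-mer Agilent arrays, double-stranded by primer extension on fresh or once-stripped slides. Fluorescent anti-GST detected bound protein, and masliner normalised the scans. E-scores for ungapped eight-base words, pooled with reverse complements, came from the Universal PBM Analysis Suite.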
row,Sequence,PBM E-score
1,CCTAGACG,-0.133
2,CACTGCAG,0.0287
3,GAAAGCGC,0.00496
4,GAACCTTC,-0.0971
5,ACCAAAGT,0.115
6,TTCCTCAA,-0.0224
7,ACAGCTGG,-0.0677
8,AACCAGTG,-0.183
9,CGAAGCAG,-0.15
10,GTAAAAGA,0.16
11,CCCTGTAC,-0.232
12,AACCCAAT,-0.0576
13,CAACCCAC,0.054
14,GTTAAGAA,-0.0961
15,AGCTAGTG,-0.03
16,ATTCACGG,0.0109
17,CCTCGTGA,0.121
18,AATGGACA,0.438
19,TGTTATAA,0.042
20,GCGGAGAA,-0.00976
21,CCGCTCGA,-0.143
22,AACCGAAC,-0.0294

row,Sequence,PBM E-score
1,CGCAAGTA,0.175
2,CCTGTCTA,0.143
3,CGGTGAGC,-0.0731
4,ATAGTGTC,0.0883
5,CGCTTCGC,-0.108
6,AAGTTCAC,-0.00901
7,CAACTCCC,-0.124
8,AGTTCACG,0.0486
9,CCTGGCGC,-0.165
10,CCGAGAAG,-0.0277
11,CCGACAAA,0.42
12,ATATTCTC,0.0936
13,CATATGAC,0.143
14,GAGTTACA,-0.0116
15,CATTATGC,-0.00798
16,AGTGAAAC,0.0644
17,CCCATATA,0.0528
18,GGGACACA,0.449
19,CCCATCCG,-0.247
20,CATCACCG,-0.0162
21,CGGATCTC,0.157
22,TCTGAAAA,0.152

row,Sequence,PBM E-score
1,CATATAAA,0.0972
2,GAGCCACC,-0.235
3,ATGCAAAA,0.241
4,CCTCGAAC,-0.0615
5,CTCTCGGA,0.142
6,GCACTTCA,0.0175
7,CATCATGC,-0.00249
8,AAGCGGAA,0.163
9,GTAAGCCA,-0.325
10,AAGTCCAT,0.262
11,GACGCAAC,0.046
12,ATCCATCC,0.0837
13,ACAAGGTC,-0.0442
14,ATTTCTTG,0.177
15,GCACCAGC,-0.185
16,GCCGCTCA,-0.178
17,GTAAACTA,0.00578
18,CGGCCCTA,0.0225
19,GTGTTCCA,-0.131
20,CCAAGTTC,-0.198
21,GTTAATCA,0.188
22,CAACGAAA,0.0881

row,Sequence,PBM E-score
1,ACGGGAGG,-0.268
2,ATTAGGAC,0.37
3,TCTTACAA,0.0399
4,AGTTGCGG,0.164
5,ACAGTTAA,-0.0448
6,ACGCCCTA,-0.236
7,AGCCGTGA,0.0413
8,CTTAGTAC,0.0335
9,AGAGGTGA,-0.00856
10,ATCCAGAC,0.0593
11,GCACCAAA,-0.064
12,GAAAACAC,0.0633
13,AGTCAACG,-0.13
14,AGTTAATC,0.00637
15,ATGGAACG,-0.158
16,CGTATAAG,-0.0644
17,ATCTGACG,-0.0857
18,AATAGATT,0.0301
19,CGATTAAG,0.0824
20,CACCCTAG,-0.0115
